From patent publication US20240254223A1 (NOVIMMUNE, published 2024)

T1: high affinity trimeric IL-2R (IL-2Rα, IL-2Rβ and IL-2Rγ) on HEK-Blue IL-2 cells (UniProt P01589 22-272; P14784 27-551; P31785 23-369)
T1 sequence (looked up) 1: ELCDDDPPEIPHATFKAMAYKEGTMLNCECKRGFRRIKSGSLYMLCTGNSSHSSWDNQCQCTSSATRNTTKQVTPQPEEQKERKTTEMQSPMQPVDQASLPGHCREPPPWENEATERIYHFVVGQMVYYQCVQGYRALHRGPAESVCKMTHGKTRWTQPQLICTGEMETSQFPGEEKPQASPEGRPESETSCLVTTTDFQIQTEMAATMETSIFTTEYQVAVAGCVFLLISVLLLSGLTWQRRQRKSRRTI
T1 sequence (looked up) 2: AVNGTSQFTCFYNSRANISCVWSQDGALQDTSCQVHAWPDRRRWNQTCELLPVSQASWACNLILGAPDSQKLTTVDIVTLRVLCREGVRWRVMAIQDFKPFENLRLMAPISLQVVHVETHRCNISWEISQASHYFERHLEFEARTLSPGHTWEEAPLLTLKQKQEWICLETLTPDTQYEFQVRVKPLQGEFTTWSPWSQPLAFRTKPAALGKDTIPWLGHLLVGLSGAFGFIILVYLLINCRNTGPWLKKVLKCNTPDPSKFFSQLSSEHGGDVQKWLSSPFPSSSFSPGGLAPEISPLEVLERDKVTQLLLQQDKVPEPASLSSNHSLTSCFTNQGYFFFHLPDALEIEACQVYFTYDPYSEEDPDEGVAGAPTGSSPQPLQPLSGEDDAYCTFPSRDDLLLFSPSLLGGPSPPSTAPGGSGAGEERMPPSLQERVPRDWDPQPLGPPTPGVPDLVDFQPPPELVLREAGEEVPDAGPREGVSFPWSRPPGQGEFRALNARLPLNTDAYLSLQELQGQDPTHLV
T1 sequence (looked up) 3: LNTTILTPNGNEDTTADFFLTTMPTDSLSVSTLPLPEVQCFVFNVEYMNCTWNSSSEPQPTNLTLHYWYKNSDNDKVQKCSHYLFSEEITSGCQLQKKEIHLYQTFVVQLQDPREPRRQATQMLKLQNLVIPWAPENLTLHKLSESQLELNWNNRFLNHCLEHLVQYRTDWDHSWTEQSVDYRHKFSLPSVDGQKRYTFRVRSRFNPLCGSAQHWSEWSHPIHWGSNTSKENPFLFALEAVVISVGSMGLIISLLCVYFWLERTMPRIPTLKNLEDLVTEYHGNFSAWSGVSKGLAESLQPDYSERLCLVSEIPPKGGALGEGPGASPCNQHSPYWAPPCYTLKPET

T2: low-moderate affinity dimeric IL-2R (IL-2Rβ and IL-2Rγ) on HEK-Blue CD122/CD132 cells (UniProt P14784 27-551; P31785 23-369, limits assumed)
T2 sequence (looked up) 1: T1 sequence (looked up) 2
T2 sequence (looked up) 2: T1 sequence (looked up) 3

B1: pNOVI V2K K33_E6_IL-2Rα_1_238_CM1_IL-2_21_153_CM1 VKCK IL-2Rβ_1_239_CM1_VHCH (antibody, human IgG1, kappa)
light: ELCDDDPPEIPHATFKAMAYKEGTMLNCECKRGFRRIKSGSLYMLCTGNSSHSSWDNQCQCTSSATRNTTKQVTPQPEEQKERKTTEMQSPMQPVDQASLPGHCREPPPWENEATERIYHFVVGQMVYYQCVQGYRALHRGPAESVCKMTHGKTRWTQPQLICTGEMETSQFPGEEKPQASPEGRPESETSCLVTTTDFQIQTEMAATMETSIFTTEGGGGSVHMPLGFLGPGGGGS[about 150 residues left out]GGGGSVHMPLGFLGPGGSDIQMTQSPSSLSASVGDRVTITCRASQSISSYLNWYQQKPGKAPKLLIYAASSLQSGVPSRFSGSGSGTDFTLTISSLQPEDFATYYCQQFHKRSPQKFGQGTKVEIKRTVAAPSVFIFPPSDEQLKSGTASVVCLLNNFYPREAKVQWKVDNALQSGNSQESVTEQDSKDSTYSLSSTLTLSKADYEKHKVYACEVTHQGLSSPVTKSFNRGEC
heavy: AVNGTSQFTCFYNSRANISCVWSQDGALQDTSCQVHAWPDRRRWNQTCELLPVSQASWACNLILGAPDSQKLTTVDIVTLRVLCREGVRWRVMAIQDFKPFENLRLMAPISLQVVHVETHRCNISWEISQASHYFERHLEFEARTLSPGHTWEEAPLLTLKQKQEWICLETLTPDTQYEFQVRVKPLQGEFTTWSPWSQPLAFRTKPAALGKDGGGGSVHMPLGFLGPGGS[about 120 residues left out][about 100 residues left out][human IgG1 Fc left out]
notes: masked K33 fusion, uncleaved; also called n830; construct No 830
B2: pNOVI V2K K91_M3_IL-2Rα_1_238_CM1_IL-2 D20T_21_153_CM1 VKCK IL-2Rβ_1_239_CM1_VHCH (antibody, human IgG1, kappa)
light: ELCDDDPPEIPHATFKAMAYKEGTMLNCECKRGFRRIKSGSLYMLCTGNSSHSSWDNQCQCTSSATRNTTKQVTPQPEEQKERKTTEMQSPMQPVDQASLPGHCREPPPWENEATERIYHFVVGQMVYYQCVQGYRALHRGPAESVCKMTHGKTRWTQPQLICTGEMETSQFPGEEKPQASPEGRPESETSCLVTTTDFQIQTEMAATMETSIFTTEGGGGSVHMPLGFLGPGGGGS[about 150 residues with changes left out]GGGGSVHMPLGFLGPGGSDIQMTQSPSSLSASVGDRVTITCNVDQVIANWLNWYQQKPGKAPKLLIYAASSLQSGVPSRFSGSGSGTDFTLTISSLQPEDFATYYCQQMHPRAPKQFGQGTKVEIKRTVAAPSVFIFPPSDEQLKSGTASVVCLLNNFYPREAKVQWKVDNALQSGNSQESVTEQDSKDSTYSLSSTLTLSKADYEKHKVYACEVTHQGLSSPVTKSFNRGEC
heavy: AVNGTSQFTCFYNSRANISCVWSQDGALQDTSCQVHAWPDRRRWNQTCELLPVSQASWACNLILGAPDSQKLTTVDIVTLRVLCREGVRWRVMAIQDFKPFENLRLMAPISLQVVHVETHRCNISWEISQASHYFERHLEFEARTLSPGHTWEEAPLLTLKQKQEWICLETLTPDTQYEFQVRVKPLQGEFTTWSPWSQPLAFRTKPAALGKDGGGGSVHMPLGFLGPGGS[about 120 residues left out][about 100 residues left out][human IgG1 Fc left out]
notes: masked K91 fusion with IL-2 D20T, uncleaved; also called n790; construct No 790
B3: pNOVI V2K K91_M1_IL-2Rα_1_238_CM1_IL-2 C125S_21_153_CM1 VKCK IL-2Rβ_1_239_CM1_VHCH (antibody, human IgG1, kappa)
light: ELCDDDPPEIPHATFKAMAYKEGTMLNCECKRGFRRIKSGSLYMLCTGNSSHSSWDNQCQCTSSATRNTTKQVTPQPEEQKERKTTEMQSPMQPVDQASLPGHCREPPPWENEATERIYHFVVGQMVYYQCVQGYRALHRGPAESVCKMTHGKTRWTQPQLICTGEMETSQFPGEEKPQASPEGRPESETSCLVTTTDFQIQTEMAATMETSIFTTEGGGGSVHMPLGFLGPGGGGS[about 150 residues with changes left out]GGGGSVHMPLGFLGPGGSDIQMTQSPSSLSASVGDRVTITCNVDQVIANWLNWYQQKPGKAPKLLIYAASSLQSGVPSRFSGSGSGTDFTLTISSLQPEDFATYYCQQMHPRAPKQFGQGTKVEIKRTVAAPSVFIFPPSDEQLKSGTASVVCLLNNFYPREAKVQWKVDNALQSGNSQESVTEQDSKDSTYSLSSTLTLSKADYEKHKVYACEVTHQGLSSPVTKSFNRGEC
heavy: AVNGTSQFTCFYNSRANISCVWSQDGALQDTSCQVHAWPDRRRWNQTCELLPVSQASWACNLILGAPDSQKLTTVDIVTLRVLCREGVRWRVMAIQDFKPFENLRLMAPISLQVVHVETHRCNISWEISQASHYFERHLEFEARTLSPGHTWEEAPLLTLKQKQEWICLETLTPDTQYEFQVRVKPLQGEFTTWSPWSQPLAFRTKPAALGKDGGGGSVHMPLGFLGPGGS[about 120 residues left out][about 100 residues left out][human IgG1 Fc left out]
notes: masked K91 fusion with IL-2 C125S, uncleaved; also called n770; construct No 770

Tests used:
[1] = target: T1, high affinity trimeric IL-2R (IL-2Rα, …); assay: cell-based or functional assay
[2] = target: T2, low-moderate affinity dimeric IL-2R …; assay: cell-based or functional assay
[3] = target: T3, His-tagged human CD47 (human, UniProt Q08722 partial chain, limits assumed); assay: BLI, His-CD47 on HIS1K sensor, antibody 15 µg/mL
T3 construct: loaded on HIS1K biosensors at 2.5 µg/mL; also called target antigen; not shown: His tag

[4] = target: T4, CD47 at the surface of Peak cells (human, UniProt Q08722); assay: flow cytometry, Peak cells, before cleavage
T4 construct: whole, on cells; also called cell surface CD47

[5] = target: T4, CD47 at the surface of Peak cells; assay: flow cytometry, Peak cells; EC50 before / EC50 after cleavage

Binder	EC50 before cleavage IL-2, HEK Blue IL-2 αβγ reporter assay [1]	EC50 ratio (BC/AC), HEK Blue IL-2 αβγ reporter assay [1]	EC50 before cleavage IL-2, HEK Blue IL-2 βγ reporter assay [2]	EC50 ratio (BC/AC), HEK Blue IL-2 βγ reporter assay [2]	Binding before cleavage (BLI) [3]	EC50 [4]	Binding recovery (BC/AC) [5]
B1	0.33 nM	38	1.74 nM	147	0.6 nm	–	–
B2	0.65 nM	18	1.44 nM	19	0.6 nm	40.5 nM	25
B3	1.29 nM	75	0.22 nM	19	0.4 nm	54.4 nM	106
